In the supplement of paper PMC4967469:
pIC50: −log10 of the molar value. By IC50 is meant the dose at which the fit gives 50% viability; a limit (>, <) means that the fit lies beyond the doses tested. AUC sums up the same curve from the lowest dose to the 256-fold higher top dose: 1 means no effect, lower means more sensitive. For part of these data: Where the top dose is marked as inferred, it was calculated from the reported fits.

Columns and labels:
Test in all cases: Viability of human cancer cell lines after 72 h of drug (GDSC screen)
Roscovitine = compound: CC[C@H](CO)Nc1nc(NCc2ccccc2)c2ncn(C(C)C)c2n1 [Roscovitine]; conditions: top dose 16 µM; top dose inferred
Description: (§1)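 Human cancer cell lines in 384-well plates, medium with 10% serum, drug for 72 h over a 256-fold dose range (nine 2-fold or five 4-fold steps up to the top dose). Adherent lines were fixed and stained with the nucleic acid dye Syto60, suspension lines read with resazurin; signal relative to control wells, capped at 0 and 100%. One two-parameter sigmoid per drug and line, fitted in a mixed model over all curves with the slope shared within a line.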

Midostaurin = compound: CO[C@@H]1[C@H](N(C)C(=O)c2ccccc2)C[C@H]2O[C@]1(C)n1c3ccccc3c3c4c(c5c6ccccc6n2c5c31)C(=O)NC4 [Midostaurin]; conditions: top dose 0.512 µM; top dose inferred
Description: as §1

Mitomycin C = compound: CO[C@@]12[C@H](COC(N)=O)C3=C(C(=O)C(C)=C(N)C3=O)N1C[C@@H]1N[C@@H]12 [Mitomycin C]; conditions: top dose 16 µM
Description: as §1

Bosutinib = compound: COc1cc(Nc2c(C#N)cnc3cc(OCCCN4CCN(C)CC4)c(OC)cc23)c(Cl)cc1Cl [Bosutinib]; conditions: top dose 2 µM
Description: as §1

NVP-BHG712 = compound: Cc1ccc(C(=O)Nc2cccc(C(F)(F)F)c2)cc1Nc1nc(-c2cccnc2)nc2c1cnn2C [NVP-BHG712]; conditions: top dose 10.24 µM; top dose inferred
Description: as §1

IOX2 = compound: O=C(O)CNC(=O)c1c(O)c2ccccc2n(Cc2ccccc2)c1=O [IOX2]; conditions: top dose 0.1 µM; top dose inferred
Description: as §1

Cell Line | AUC (Roscovitine) | pIC50 (Roscovitine) | AUC (Midostaurin) | pIC50 (Midostaurin) | AUC (Mitomycin C) | pIC50 (Mitomycin C) | AUC (Bosutinib) | pIC50 (Bosutinib) | AUC (NVP-BHG712) | pIC50 (NVP-BHG712) | AUC (IOX2) | pIC50 (IOX2)
PL-21 (acute myeloid leukaemia, suspension) | 0.837 | 4.87 | 0.965 | < 6.29 | 0.571 | 5.79 | 0.85 | 5.71 | 0.75 | 5.41 | 0.98 | < 7.00
QIMR-WIL (acute myeloid leukaemia, suspension) | 0.915 | < 4.80 | 0.866 | 6.36 | 0.201 | 6.87 | 0.819 | 5.96 | 0.816 | 5.26 | 0.984 | < 7.00
RC-K8 (B-cell lymphoma, suspension) | 0.972 | < 4.80 | 0.993 | < 6.29 | 0.578 | 5.80 | 0.993 | < 5.70 | 0.919 | < 4.99 | 0.969 | < 7.00
REH (B-cell leukaemia, suspension) | 0.982 | < 4.80 | 0.882 | 6.30 | 0.098 | > 7.20 | 0.94 | < 5.70 | 0.948 | < 4.99 | 0.986 | < 7.00
RF-48 (stomach, adherent) | 0.923 | < 4.80 | 0.927 | < 6.29 | 0.307 | 6.57 | 0.949 | < 5.70 | 0.71 | 5.57 | 0.984 | < 7.00
RH-1 (rhabdomyosarcoma, adherent) | 0.974 | < 4.80 | 0.923 | < 6.29 | 0.171 | 6.89 | 0.961 | < 5.70 | 0.871 | 5.15 | 0.983 | < 7.00
RKO (large intestine, adherent) | 0.913 | < 4.80 | 0.879 | 6.34 | 0.18 | 6.92 | 0.979 | < 5.70 | 0.754 | 5.49 | 0.973 | < 7.00
RL (B-cell lymphoma, suspension) | 0.99 | < 4.80 | 0.989 | < 6.29 | 0.786 | 5.20 | 0.99 | < 5.70 | 0.501 | 6.19 | 0.989 | < 7.00
ROS-50 (B-cell leukaemia, suspension) | 0.913 | < 4.80 | 0.964 | < 6.29 | 0.646 | 5.55 | 0.972 | < 5.70 | 0.793 | 5.21 | 0.983 | < 7.00
RPMI-6666 (Hodgkin lymphoma, suspension) | 0.875 | < 4.80 | 0.917 | < 6.29 | 0.292 | 6.64 | 0.865 | < 5.70 | 0.554 | 6.03 | 0.976 | < 7.00
RPMI-8866 (chronic myeloid leukaemia, suspension) | 0.986 | < 4.80 | 0.988 | < 6.29 | 0.558 | 5.85 | 0.627 | 6.56 | 0.792 | 5.37 | 0.987 | < 7.00
Raji (Burkitt lymphoma, suspension) | 0.881 | 4.83 | 0.988 | < 6.29 | 0.548 | 5.87 | 0.986 | < 5.70 | 0.92 | < 4.99 | 0.982 | < 7.00
SBC-1 (small cell lung carcinoma, suspension) | 0.983 | < 4.80 | 0.987 | < 6.29 | 0.383 | 6.32 | 0.979 | < 5.70 | 0.988 | < 4.99 | 0.988 | < 7.00
SCH (stomach, adherent) | 0.975 | < 4.80 | 0.988 | < 6.29 | 0.894 | < 4.80 | 0.877 | < 5.70 | 0.988 | < 4.99 | 0.987 | < 7.00
SF126 (glioma, adherent) | 0.957 | < 4.80 | 0.78 | 6.65 | 0.565 | 5.82 | 0.915 | < 5.70 | 0.986 | < 4.99 | 0.945 | < 7.00
SH-4 (melanoma, adherent) | 0.91 | < 4.80 | 0.849 | < 6.29 | 0.339 | 6.56 | 0.925 | < 5.70 | 0.62 | 5.78 | 0.97 | < 7.00
SHP-77 (small cell lung carcinoma, semi-adherent) | 0.962 | < 4.80 | 0.977 | < 6.29 | 0.559 | 5.84 | 0.99 | < 5.70 | 0.923 | < 4.99 | 0.991 | < 7.00
SIMA (neuroblastoma, adherent) | 0.969 | < 4.80 | 0.942 | < 6.29 | 0.311 | 6.56 | 0.985 | < 5.70 | 0.812 | 5.19 | 0.983 | < 7.00
SK-ES-1 (Ewing sarcoma, semi-adherent) | 0.89 | < 4.80 | 0.89 | < 6.29 | 0.091 | > 7.20 | 0.879 | < 5.70 | 0.94 | < 4.99 | 0.983 | < 7.00
SK-LMS-1 (soft tissue, adherent) | 0.987 | < 4.80 | 0.857 | 6.42 | 0.386 | 6.31 | 0.756 | 6.19 | 0.856 | 5.12 | 0.974 | < 7.00
SK-MEL-1 (melanoma, suspension) | 0.97 | < 4.80 | 0.986 | < 6.29 | 0.614 | 5.71 | 0.984 | < 5.70 | 0.906 | < 4.99 | 0.992 | < 7.00
